These are yes or no findings as the source states them, for the method shown. Binding seen in cells or lysates may run through a third protein. Some results given as binding are weak or reduced against the parent protein; the word gives no strength. For part of these data: Where a sequence is shown, tags or fusion partners need not be part of it.
Tests used:
Assay in all cases: co-IP; transfected HEK293T cells; lysis buffer 25 mM Tris-HCl pH 7.4, 150 mM NaCl, 1 mM EDTA, 1% NP40, 5% glycerol; anti-Flag, anti-Myc or anti-HA beads overnight at 4 °C; Western blot
[1] = target: T1, Flag-tagged BSRF1 (Epstein-Barr virus (human herpesvirus 4 strain M81)) (UniProt P0CK49)
T1 sequence: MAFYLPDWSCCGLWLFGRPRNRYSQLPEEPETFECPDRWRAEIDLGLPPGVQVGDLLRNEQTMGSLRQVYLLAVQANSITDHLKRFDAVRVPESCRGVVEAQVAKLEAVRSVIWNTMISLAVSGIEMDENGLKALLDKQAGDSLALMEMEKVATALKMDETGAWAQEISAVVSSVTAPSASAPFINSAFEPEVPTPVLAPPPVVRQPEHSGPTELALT

By UniProt entry, the sequences of proteins in these tests, tags left out. Residues count along the entry.
UniProt P03186, residues 1-1027: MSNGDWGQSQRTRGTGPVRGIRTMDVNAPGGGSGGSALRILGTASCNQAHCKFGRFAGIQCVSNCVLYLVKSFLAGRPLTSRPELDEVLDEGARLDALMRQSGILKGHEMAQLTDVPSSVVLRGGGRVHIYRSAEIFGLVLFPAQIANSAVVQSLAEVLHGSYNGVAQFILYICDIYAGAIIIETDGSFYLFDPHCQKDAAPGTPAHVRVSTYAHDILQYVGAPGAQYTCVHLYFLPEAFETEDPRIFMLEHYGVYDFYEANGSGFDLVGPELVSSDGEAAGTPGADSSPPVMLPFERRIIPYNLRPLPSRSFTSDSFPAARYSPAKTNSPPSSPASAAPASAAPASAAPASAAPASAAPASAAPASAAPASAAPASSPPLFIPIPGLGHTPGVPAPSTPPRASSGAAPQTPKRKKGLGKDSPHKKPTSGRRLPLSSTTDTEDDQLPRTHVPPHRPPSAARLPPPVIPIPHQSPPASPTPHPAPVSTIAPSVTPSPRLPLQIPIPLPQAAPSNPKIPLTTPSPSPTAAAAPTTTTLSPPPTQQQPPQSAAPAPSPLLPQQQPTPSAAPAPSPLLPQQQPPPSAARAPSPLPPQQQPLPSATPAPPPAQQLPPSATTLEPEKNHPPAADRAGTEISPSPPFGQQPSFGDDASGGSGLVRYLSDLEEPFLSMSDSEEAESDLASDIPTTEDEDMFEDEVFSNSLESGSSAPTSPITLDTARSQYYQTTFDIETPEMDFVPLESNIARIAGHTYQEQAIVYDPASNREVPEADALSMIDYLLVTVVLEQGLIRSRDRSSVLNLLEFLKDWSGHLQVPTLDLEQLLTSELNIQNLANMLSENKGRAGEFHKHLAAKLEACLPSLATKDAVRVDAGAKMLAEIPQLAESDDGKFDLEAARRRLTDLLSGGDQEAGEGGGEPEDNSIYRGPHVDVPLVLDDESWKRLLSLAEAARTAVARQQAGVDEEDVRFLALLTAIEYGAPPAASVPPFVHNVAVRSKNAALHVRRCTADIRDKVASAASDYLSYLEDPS
UniProt P06477, residues 19-838: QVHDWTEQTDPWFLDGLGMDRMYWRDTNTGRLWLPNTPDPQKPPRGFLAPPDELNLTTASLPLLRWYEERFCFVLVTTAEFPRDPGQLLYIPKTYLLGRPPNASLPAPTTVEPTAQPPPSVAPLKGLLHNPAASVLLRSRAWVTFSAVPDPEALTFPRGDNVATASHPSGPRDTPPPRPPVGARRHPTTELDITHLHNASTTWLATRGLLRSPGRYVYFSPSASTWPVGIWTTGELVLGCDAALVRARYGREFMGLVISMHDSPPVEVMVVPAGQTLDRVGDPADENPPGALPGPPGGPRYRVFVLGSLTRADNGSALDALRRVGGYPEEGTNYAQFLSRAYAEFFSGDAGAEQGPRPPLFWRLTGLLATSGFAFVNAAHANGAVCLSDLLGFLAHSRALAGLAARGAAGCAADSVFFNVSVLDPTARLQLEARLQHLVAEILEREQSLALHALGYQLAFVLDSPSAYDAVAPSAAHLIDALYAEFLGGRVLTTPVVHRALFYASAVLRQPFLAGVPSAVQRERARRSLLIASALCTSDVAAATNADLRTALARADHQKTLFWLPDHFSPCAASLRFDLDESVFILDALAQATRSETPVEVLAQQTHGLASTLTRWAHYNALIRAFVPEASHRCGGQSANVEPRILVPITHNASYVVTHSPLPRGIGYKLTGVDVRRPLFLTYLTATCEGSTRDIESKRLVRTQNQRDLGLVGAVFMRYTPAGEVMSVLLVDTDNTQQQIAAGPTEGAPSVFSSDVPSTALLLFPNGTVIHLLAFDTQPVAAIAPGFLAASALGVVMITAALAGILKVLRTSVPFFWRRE

[2] = target: T2, BBRF2Δ expressed in HEK293T cells (Epstein-Barr virus (human herpesvirus 4 strain M81)) (UniProt P29882)
T2 sequence: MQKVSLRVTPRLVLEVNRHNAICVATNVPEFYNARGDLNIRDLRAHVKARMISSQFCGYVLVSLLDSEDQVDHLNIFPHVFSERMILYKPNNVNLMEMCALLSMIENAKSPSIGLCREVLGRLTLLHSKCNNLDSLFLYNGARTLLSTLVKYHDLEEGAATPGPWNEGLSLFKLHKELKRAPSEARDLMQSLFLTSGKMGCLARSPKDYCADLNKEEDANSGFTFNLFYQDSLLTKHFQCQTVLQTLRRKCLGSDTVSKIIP

[3] = target: T3, Myc-tagged BBRF2 (Epstein-Barr virus (human herpesvirus 4 strain M81)) (UniProt P29882)
T3 sequence: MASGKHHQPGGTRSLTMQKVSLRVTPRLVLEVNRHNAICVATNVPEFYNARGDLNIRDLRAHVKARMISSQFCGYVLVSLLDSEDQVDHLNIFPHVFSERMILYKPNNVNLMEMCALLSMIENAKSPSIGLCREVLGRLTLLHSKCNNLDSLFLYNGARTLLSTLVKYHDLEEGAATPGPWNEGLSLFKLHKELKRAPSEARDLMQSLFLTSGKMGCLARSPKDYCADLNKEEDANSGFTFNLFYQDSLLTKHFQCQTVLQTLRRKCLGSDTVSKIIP

[4] = target: BPLF1_(1-1027) (Epstein-Barr virus) (UniProt P03186)
[5] = target: T4, EBV MCP expressed in HEK293T cells (Epstein-Barr virus) (UniProt P03226)
T4 sequence: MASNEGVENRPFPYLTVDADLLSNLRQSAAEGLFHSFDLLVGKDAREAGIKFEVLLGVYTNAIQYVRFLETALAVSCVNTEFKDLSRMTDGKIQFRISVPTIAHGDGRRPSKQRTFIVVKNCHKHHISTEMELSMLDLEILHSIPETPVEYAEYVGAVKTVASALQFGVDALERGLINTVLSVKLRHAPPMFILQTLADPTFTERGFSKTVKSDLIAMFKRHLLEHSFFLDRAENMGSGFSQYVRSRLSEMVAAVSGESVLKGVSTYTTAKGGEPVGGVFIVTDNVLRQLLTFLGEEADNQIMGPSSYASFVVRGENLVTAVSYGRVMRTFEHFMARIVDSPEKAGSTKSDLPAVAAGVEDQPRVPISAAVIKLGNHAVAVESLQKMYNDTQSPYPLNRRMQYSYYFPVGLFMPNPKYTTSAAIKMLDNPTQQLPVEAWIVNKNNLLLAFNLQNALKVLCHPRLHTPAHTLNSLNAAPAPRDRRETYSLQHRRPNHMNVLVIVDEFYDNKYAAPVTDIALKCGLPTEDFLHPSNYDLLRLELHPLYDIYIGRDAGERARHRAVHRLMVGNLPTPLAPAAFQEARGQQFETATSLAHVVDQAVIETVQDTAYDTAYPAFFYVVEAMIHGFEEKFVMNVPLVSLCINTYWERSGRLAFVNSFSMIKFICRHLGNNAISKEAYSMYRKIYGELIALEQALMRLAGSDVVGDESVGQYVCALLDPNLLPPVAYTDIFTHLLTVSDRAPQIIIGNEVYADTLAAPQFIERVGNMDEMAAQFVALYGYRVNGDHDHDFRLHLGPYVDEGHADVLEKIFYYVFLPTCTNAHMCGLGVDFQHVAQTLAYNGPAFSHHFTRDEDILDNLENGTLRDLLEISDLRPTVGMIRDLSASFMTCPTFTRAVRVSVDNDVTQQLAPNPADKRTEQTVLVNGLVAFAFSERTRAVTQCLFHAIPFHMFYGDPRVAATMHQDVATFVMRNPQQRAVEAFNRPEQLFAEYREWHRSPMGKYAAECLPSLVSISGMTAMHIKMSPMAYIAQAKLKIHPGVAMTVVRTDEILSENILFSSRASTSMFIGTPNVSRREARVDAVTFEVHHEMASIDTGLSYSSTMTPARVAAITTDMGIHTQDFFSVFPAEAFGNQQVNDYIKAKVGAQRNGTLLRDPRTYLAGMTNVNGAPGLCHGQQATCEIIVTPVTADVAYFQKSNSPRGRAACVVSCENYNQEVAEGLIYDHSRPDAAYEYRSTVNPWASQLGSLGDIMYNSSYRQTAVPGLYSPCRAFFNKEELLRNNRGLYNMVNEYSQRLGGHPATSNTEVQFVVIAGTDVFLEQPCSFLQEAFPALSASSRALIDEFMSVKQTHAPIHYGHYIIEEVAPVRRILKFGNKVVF

Q: HSV-1 gH (from UniProt P06477 19-838) was tested. Which binding [1] did it give?
A: no binding

Q: “BPLF1_(1-1027) (from UniProt P03186 1-1027) (domain or fragment)” was tested. Which binding [2] did it give?
A: binds

Q: And the binding [3]?
A: binds

B1: EBV MCP expressed in HEK293T cells (protein, UniProt P03226 1-1381)
chain: MASNEGVENRPFPYLTVDADLLSNLRQSAAEGLFHSFDLLVGKDAREAGIKFEVLLGVYTNAIQYVRFLETALAVSCVNTEFKDLSRMTDGKIQFRISVPTIAHGDGRRPSKQRTFIVVKNCHKHHISTEMELSMLDLEILHSIPETPVEYAEYVGAVKTVASALQFGVDALERGLINTVLSVKLRHAPPMFILQTLADPTFTERGFSKTVKSDLIAMFKRHLLEHSFFLDRAENMGSGFSQYVRSRLSEMVAAVSGESVLKGVSTYTTAKGGEPVGGVFIVTDNVLRQLLTFLGEEADNQIMGPSSYASFVVRGENLVTAVSYGRVMRTFEHFMARIVDSPEKAGSTKSDLPAVAAGVEDQPRVPISAAVIKLGNHAVAVESLQKMYNDTQSPYPLNRRMQYSYYFPVGLFMPNPKYTTSAAIKMLDNPTQQLPVEAWIVNKNNLLLAFNLQNALKVLCHPRLHTPAHTLNSLNAAPAPRDRRETYSLQHRRPNHMNVLVIVDEFYDNKYAAPVTDIALKCGLPTEDFLHPSNYDLLRLELHPLYDIYIGRDAGERARHRAVHRLMVGNLPTPLAPAAFQEARGQQFETATSLAHVVDQAVIETVQDTAYDTAYPAFFYVVEAMIHGFEEKFVMNVPLVSLCINTYWERSGRLAFVNSFSMIKFICRHLGNNAISKEAYSMYRKIYGELIALEQALMRLAGSDVVGDESVGQYVCALLDPNLLPPVAYTDIFTHLLTVSDRAPQIIIGNEVYADTLAAPQFIERVGNMDEMAAQFVALYGYRVNGDHDHDFRLHLGPYVDEGHADVLEKIFYYVFLPTCTNAHMCGLGVDFQHVAQTLAYNGPAFSHHFTRDEDILDNLENGTLRDLLEISDLRPTVGMIRDLSASFMTCPTFTRAVRVSVDNDVTQQLAPNPADKRTEQTVLVNGLVAFAFSERTRAVTQCLFHAIPFHMFYGDPRVAATMHQDVATFVMRNPQQRAVEAFNRPEQLFAEYREWHRSPMGKYAAECLPSLVSISGMTAMHIKMSPMAYIAQAKLKIHPGVAMTVVRTDEILSENILFSSRASTSMFIGTPNVSRREARVDAVTFEVHHEMASIDTGLSYSSTMTPARVAAITTDMGIHTQDFFSVFPAEAFGNQQVNDYIKAKVGAQRNGTLLRDPRTYLAGMTNVNGAPGLCHGQQATCEIIVTPVTADVAYFQKSNSPRGRAACVVSCENYNQEVAEGLIYDHSRPDAAYEYRSTVNPWASQLGSLGDIMYNSSYRQTAVPGLYSPCRAFFNKEELLRNNRGLYNMVNEYSQRLGGHPATSNTEVQFVVIAGTDVFLEQPCSFLQEAFPALSASSRALIDEFMSVKQTHAPIHYGHYIIEEVAPVRRILKFGNKVVF
Q: Which binding [2] does the source give for B1 here?
A: binds

Q: What about the binding [3] of the same molecule?
A: binds

B2: Myc-tagged BBRF2 (protein, UniProt P29882 1-278)
chain: MASGKHHQPGGTRSLTMQKVSLRVTPRLVLEVNRHNAICVATNVPEFYNARGDLNIRDLRAHVKARMISSQFCGYVLVSLLDSEDQVDHLNIFPHVFSERMILYKPNNVNLMEMCALLSMIENAKSPSIGLCREVLGRLTLLHSKCNNLDSLFLYNGARTLLSTLVKYHDLEEGAATPGPWNEGLSLFKLHKELKRAPSEARDLMQSLFLTSGKMGCLARSPKDYCADLNKEEDANSGFTFNLFYQDSLLTKHFQCQTVLQTLRRKCLGSDTVSKIIP
Q: For B2, which binding [4] is on record?
A: binds

Q: And the binding [5]?
A: binds

B3: BBRF2Δ expressed in HEK293T cells (domain or fragment, UniProt P29882 17-278)
chain: MQKVSLRVTPRLVLEVNRHNAICVATNVPEFYNARGDLNIRDLRAHVKARMISSQFCGYVLVSLLDSEDQVDHLNIFPHVFSERMILYKPNNVNLMEMCALLSMIENAKSPSIGLCREVLGRLTLLHSKCNNLDSLFLYNGARTLLSTLVKYHDLEEGAATPGPWNEGLSLFKLHKELKRAPSEARDLMQSLFLTSGKMGCLARSPKDYCADLNKEEDANSGFTFNLFYQDSLLTKHFQCQTVLQTLRRKCLGSDTVSKIIP
Q: B3 was tested. Which binding [4] did it give?
A: binds

Q: And the binding [5]?
A: binds

From publication PMC7588443 (Nature Communications, 2020)
